Source: patent publication US20220185875A1 (JIANGSU HENGRUI MEDICINE, published 2022)

B1: hu15.E-V (bispecific antibody, human IgG1, kappa)
heavy: EVQLVESGGGLVQPGGSLRLSCAASGYDFTHYGMNWVRQAPGKGLEWVGWINTYTGEPTYAADFKRRFTFSLDTSKSTAYLQMNSLRAEDTAVYYCAKYPYYYGTSHWYFDVWGQGTLVTVSS[human IgG1 constant region not printed]GEVQLVESGGGLVQPGGSLRLSCAASGFTFSSYAMSWVRQAPGKGLEWVSTINSGGGRTGYADSVKGRFTISRDNSKNTLYLQMNSLRPEDTAVYYCNADHPQGYWGQGTTVTVSS
light: DIQLTQSPSSLSASVGDRVTITCSASQDISNYLNWYQQKPGKAPKVLIYFTSSLHSGVPSRFSGSGSGTDFTLTISSLQPEDFATYYCQQYSTVPWTFGQGTKVEIKRTVAAPSVFIFPPSDEQLKSGTASVVCLLNNFYPREAKVQWKVDNALQSGNSQESVTEQDSKDSTYSLSSTLTLSKADYEKHKVYACEVTHQGLSSPVTKSFNRGEC
notes: First chain: ranibizumab VH, IgG1 constant region, linker, humanized anti-ANG2 VHH hu15.E. Second chain: ranibizumab light chain; also called VEGF/ANG2 bispecific antibody hu15.E-V
B2: hu14.2B-V (bispecific antibody, human IgG1, kappa)
heavy: EVQLVESGGGLVQPGGSLRLSCAASGYDFTHYGMNWVRQAPGKGLEWVGWINTYTGEPTYAADFKRRFTFSLDTSKSTAYLQMNSLRAEDTAVYYCAKYPYYYGTSHWYFDVWGQGTLVTVSS[human IgG1 constant region not printed]GEVQLVESGGGLVQPGGSLRLSCAASGFTFSDFGMSWVRQAPGKGLEWVSSITWSGGSTYYADSVKGRFTISRDNSKNTLYLQMNSLKPEDTAVYYCNADHPQGYWGQGTTVTVSS
light: B1 light
notes: First chain: ranibizumab VH, IgG1 constant region, linker, humanized anti-ANG2 VHH hu14.2B; Second chain: ranibizumab light chain; also called VEGF/ANG2 bispecific antibody hu14.2B-V

Columns and labels:
[1] = molecular target: T1, human ANG1 (RD,923-AN) (human, UniProt Q15389 20-498, limits assumed); assay: SPR (Biacore T200), antibody captured on Protein A chip
T1 sequence (looked up): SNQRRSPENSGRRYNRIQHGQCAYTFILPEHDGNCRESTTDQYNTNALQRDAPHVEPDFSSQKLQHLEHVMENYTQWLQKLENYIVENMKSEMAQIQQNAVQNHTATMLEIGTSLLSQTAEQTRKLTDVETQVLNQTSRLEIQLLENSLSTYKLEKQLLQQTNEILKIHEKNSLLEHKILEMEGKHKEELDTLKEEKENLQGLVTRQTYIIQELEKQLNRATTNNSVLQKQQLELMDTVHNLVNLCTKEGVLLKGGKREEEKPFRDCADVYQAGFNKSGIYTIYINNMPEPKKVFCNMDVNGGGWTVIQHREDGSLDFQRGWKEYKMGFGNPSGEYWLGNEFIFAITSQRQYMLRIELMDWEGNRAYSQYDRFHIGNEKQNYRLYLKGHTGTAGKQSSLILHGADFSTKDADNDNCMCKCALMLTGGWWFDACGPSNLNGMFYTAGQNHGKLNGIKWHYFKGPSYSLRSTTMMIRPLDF

[2] = molecular target: T2, human ANG2 (sinobiological, 10691-H08H) (human, UniProt O15123 19-496); assay: SPR (Biacore T200), antibody captured on Protein A chip, antigen as analyte, 1:1 Langmuir fit
T2 construct: Bought reagent, used as analyte in Biacore
T2 sequence (looked up): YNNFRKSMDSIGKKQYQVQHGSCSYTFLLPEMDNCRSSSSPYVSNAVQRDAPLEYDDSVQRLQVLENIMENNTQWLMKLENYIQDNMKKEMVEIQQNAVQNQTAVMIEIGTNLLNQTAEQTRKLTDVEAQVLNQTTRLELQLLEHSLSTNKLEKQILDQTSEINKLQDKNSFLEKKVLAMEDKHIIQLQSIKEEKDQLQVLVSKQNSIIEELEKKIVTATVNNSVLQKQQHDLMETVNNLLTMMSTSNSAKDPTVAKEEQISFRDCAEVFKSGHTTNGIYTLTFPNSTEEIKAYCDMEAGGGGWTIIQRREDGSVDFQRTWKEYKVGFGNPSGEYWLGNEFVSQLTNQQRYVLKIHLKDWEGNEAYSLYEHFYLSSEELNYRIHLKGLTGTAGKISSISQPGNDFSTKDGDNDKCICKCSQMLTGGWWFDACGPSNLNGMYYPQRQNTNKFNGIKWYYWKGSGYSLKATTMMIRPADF

[3] = molecular target: T3, cyno VEGF (sinobiological, 11066) (cyno); assay: as above
T3 construct: Bought reagent, used as analyte in Biacore

[4] = molecular target: T4, mouse ANG2 (sinobiological, 50298-MOTH) (mouse, UniProt O35608 19-496, limits assumed); assay: as above
T4 construct: Bought reagent, used as analyte in Biacore; also called murine ANG2
T4 sequence (looked up): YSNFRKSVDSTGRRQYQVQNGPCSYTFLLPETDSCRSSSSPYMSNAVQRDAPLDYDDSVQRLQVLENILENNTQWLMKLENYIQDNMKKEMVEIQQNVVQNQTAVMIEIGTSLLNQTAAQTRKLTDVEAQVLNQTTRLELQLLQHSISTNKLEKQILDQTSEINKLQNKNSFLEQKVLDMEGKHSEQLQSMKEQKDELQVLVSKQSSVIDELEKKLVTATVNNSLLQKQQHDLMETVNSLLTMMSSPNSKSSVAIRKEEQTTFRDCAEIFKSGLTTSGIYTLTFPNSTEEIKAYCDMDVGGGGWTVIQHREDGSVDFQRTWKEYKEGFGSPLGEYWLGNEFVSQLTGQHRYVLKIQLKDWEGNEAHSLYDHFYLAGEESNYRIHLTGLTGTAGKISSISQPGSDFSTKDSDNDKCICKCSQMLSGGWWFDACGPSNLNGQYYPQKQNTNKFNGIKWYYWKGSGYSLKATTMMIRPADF

| Binder | binding result [1] | Kd [2] | Kd [3] | Kd [4] |
| --- | --- | --- | --- | --- |
| B1 | no binding | 0.4 nM | 0.005 nM | 0.51 nM |
| B2 | no binding | 1.15 nM | 0.00436 nM | 264 nM |
